Source: PubChem BioAssay AID1645887 (National Center for Advancing Translational Sciences (NCATS), 2021)
Where “and” joins values, the source holds several entries; their conditions need not be identical. Equal values may be shown once. Among all 16,000 compounds or so, about 40 (0.2%) were called active. Roughly 1% stayed inconclusive and do not appear here. The call rests on the fitted dose curve; in most records, active means well fitted activation curve with a large enough effect; inconclusive means small, poorly fitted or top-dose-only effect, or another doubt; inactive means no such curve, though single readings can be large or run the other way. Some of the results follow.

Target: Rap guanine nucleotide exchange factor 4 (Homo sapiens) (UniProt Q8WZA2)
Chain of UniProt Q8WZA2 (Q8WZA2 whole entry, looked up): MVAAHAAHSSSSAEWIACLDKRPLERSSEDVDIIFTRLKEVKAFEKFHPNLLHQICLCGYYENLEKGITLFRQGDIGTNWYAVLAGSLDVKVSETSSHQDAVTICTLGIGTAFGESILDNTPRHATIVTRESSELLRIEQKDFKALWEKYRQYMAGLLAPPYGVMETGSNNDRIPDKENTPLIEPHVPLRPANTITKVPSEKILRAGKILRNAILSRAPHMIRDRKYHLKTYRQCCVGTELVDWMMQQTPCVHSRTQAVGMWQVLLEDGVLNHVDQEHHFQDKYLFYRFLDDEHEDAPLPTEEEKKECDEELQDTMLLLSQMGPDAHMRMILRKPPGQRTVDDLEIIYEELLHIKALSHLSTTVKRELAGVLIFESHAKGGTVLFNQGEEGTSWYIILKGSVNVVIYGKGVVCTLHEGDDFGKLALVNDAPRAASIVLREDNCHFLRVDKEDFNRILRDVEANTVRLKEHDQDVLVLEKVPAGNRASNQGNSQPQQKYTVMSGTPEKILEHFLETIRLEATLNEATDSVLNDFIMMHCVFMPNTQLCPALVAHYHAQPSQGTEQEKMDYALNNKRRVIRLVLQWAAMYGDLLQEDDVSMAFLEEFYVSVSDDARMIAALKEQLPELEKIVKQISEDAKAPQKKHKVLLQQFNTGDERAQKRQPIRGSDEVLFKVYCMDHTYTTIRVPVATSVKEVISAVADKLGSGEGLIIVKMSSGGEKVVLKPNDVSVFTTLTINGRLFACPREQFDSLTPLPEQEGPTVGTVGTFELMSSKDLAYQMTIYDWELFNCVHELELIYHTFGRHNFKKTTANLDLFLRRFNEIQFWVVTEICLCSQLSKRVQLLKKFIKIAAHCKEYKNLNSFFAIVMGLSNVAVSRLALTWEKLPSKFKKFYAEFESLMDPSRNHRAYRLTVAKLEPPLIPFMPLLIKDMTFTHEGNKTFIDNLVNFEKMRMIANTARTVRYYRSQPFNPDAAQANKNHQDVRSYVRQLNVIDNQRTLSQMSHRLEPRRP
Assay: Validation qHTS for agonist of cAMP-regulated guanine nucleotide exchange factor 4 (EPAC2);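 further: exchange makes BODIPY-GDP fluorescence drop when released from Rap1B; series mostly up to about 150 µM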
Settings: EPAC2 Rap1B BODIPY-GDP exchange, fluorescence; activation: active compounds read high
Summary of the method: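 Fluorescent exchange assay: 100 nM EPAC2 with 250 nM RAP1B-BODIPY-GDP and 50 uM GDP; compound added, 5 min at room temperature, then read (ex 480/em 540 nm) every 5 min for 30 min. Normalized to 6.5 mM cAMP agonist control.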
On the % scale 0 is the no-effect control and ±100 the full control effect.

activation, inactive:
COc1cccc(-c2cc(NCc3ccccc3)ncn2)c1 -14%
C[C@H](NC(CCc1ccccc1)C(=O)O)C(=O)N1CCC[C@H]1C(=O)O (stereo not given in full) -9.28%
CN(C)Cc1ccccc1-c1cc(NCc2cccs2)ncn1 8.64%
O=C(c1ccco1)N1CCC[C@@]2(CCN(Cc3ccccc3)C2)C1 -8.15%
COc1ccc(CN2CCc3nnc(CCc4ccccc4)n3CC2)c(OC)c1C 2.73%
N[C@H](C(=O)O)C1C(C(=O)O)C1C(=O)O (stereo not given in full) 4.96%
O=C1CCC[C@@H]2CC(Nc3ccccc3)C[C@@H]3CCN1[C@H]23 (stereo not given in full) -15.2%
COC1=C(C(=O)O)N2C(=O)[C@@H](NC(=O)[C@H](N)C3=CCC=CC3)[C@H]2SC1 -3.84%
O=[N+]([O-])c1cccc(CN2C[C@@]34C=C[C@@H](C[C@@H]3S2(=O)=O)O4)c1 -1.69%
COc1ccc(NC(=O)[C@@H]2CC=C[C@@H]3CCN(C4CCCCC4)C(=O)[C@@H]32)cc1 -22.2%
O=C(O)CCc1cccnc1 -35.3%
NS(=O)(=O)c1cc(Cl)c(Cl)c(S(N)(=O)=O)c1 -19.5%
CC(=C\c1ccccc1)/C=C1/SC(=S)N(CC(=O)O)C1=O -26.2%
COc1c(C)c2c(c(O)c1C/C=C(\C)CCC(=O)O)C(=O)OC2 -3.46% [middle of 4 runs]
COc1ccc(Oc2ncc3nc(-c4ccc(OC)cc4)c(=O)n(C4CC4)c3n2)cc1 -3.69%
Clc1ccccc1-c1nc(-c2ccncc2)no1 -7.33%
COC(=O)[C@@H]1C[C@H](NC(=O)c2cc(C(F)(F)F)ccc2Cl)CN1Cc1cccc(O)c1 -2.26%
O=C(O)c1ccc(S(=O)(=O)N(Cl)Cl)cc1 10.5%
O=C(Oc1ccccc1C(=O)O)c1ccccc1O -13.5%
O=C(O)C[C@H]1c2cc(F)ccc2S(=O)(=O)N1C1CCCC1 -22.1%
Cc1ccc(-n2cc(CCCCCCCCC(=O)O)nn2)cc1 -7.24%
Nc1ccc(C(=O)O)cc1 3.68% and 9.09%
CN1CCN(c2ncc3nc(-c4cc(F)cc(F)c4)c(=O)n(-c4ccccc4)c3n2)CC1 -27%
CCN1CCCC(OC(=O)C(c2ccccc2)c2ccccc2)C1 (stereo not given) -14.9% and -1.19%
[N-]=[N+]=NC[C@H](Cc1ccccc1)N1CC[C@@H](O)CCC1=O -8.03%
